Reference: article PMC4336329 (PLoS ONE, 2015)
About 14,000 (4.5%) of roughly 310,000 compounds showed an effect of 50% or more. The effect is printed as a negative number. This is one part of the list.

Target: human ether-à-go-go-related gene (hERG) potassium channel (human, UniProt Q12809)
Experiment: primary screen, population patch clamp on CHO cells stably expressing hERG
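Also: peak tail current of the secondary pulse compared with the same well before compound.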

Sequence of human ether-à-go-go-related gene (hERG) potassium channel (Q12809 whole entry, looked up): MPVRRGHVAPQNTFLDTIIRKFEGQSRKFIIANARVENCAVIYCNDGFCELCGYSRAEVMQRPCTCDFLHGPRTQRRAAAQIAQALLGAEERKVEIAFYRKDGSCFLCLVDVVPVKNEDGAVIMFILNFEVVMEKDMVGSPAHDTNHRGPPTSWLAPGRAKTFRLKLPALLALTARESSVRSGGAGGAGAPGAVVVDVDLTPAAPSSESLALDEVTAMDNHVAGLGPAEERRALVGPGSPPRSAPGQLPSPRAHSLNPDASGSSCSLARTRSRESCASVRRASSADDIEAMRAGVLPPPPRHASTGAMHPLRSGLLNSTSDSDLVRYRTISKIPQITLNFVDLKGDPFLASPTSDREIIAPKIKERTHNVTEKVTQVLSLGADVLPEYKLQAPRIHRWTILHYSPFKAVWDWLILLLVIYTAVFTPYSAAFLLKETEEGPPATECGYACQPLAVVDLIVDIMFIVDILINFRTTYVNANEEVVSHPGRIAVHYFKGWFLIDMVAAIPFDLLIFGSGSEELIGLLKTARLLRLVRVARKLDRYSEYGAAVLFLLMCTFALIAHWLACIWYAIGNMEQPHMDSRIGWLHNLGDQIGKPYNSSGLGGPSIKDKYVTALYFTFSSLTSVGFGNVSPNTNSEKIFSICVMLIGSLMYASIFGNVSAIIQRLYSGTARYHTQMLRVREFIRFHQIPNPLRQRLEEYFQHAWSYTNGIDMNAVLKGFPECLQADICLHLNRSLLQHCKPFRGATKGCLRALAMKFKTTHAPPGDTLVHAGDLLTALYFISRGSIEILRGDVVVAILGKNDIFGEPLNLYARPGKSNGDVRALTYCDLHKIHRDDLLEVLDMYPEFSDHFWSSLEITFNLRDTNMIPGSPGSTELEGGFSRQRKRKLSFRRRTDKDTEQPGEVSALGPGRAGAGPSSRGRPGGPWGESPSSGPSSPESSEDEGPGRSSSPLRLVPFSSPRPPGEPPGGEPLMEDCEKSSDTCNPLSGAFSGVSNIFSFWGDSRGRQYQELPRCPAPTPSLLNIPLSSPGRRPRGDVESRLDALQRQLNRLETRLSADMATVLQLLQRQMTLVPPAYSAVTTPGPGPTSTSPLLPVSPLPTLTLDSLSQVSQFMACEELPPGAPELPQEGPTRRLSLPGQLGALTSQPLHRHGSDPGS

SMILES	hERG current change (%, negative = inhibition) at 10uM [%]
CCOc1ccc(NC(=O)CC2C(=O)N(c3cccc(OC)c3)C(=O)N2C(C)C)cc1 (stereo not shown)	5.3
CC(OC(=O)C1CC(O)CN1S(=O)(=O)c1ccccc1[N+](=O)[O-])C(=O)N1CCCCC1 (stereo not shown)	-8.19
Cc1cc2nc(-c3ccc(SCc4ccc(C(=O)O)cc4)nc3)[nH]c2cc1C	20.6
COc1ccc(C2C/C(=N\O)C(C)(C)O2)cc1 (stereo not shown)	-1.95
COc1ccc(CCNS(=O)(=O)c2cn(C)cn2)cc1OC	26.8
Cc1ccc(NC(=O)CSc2nc3[nH]c(=O)cc(O)c3s2)c(Br)c1	12.2
Cc1cc(C(=O)CSc2ccc(F)cc2)cc(C)c1OC(=S)N(C)C	-0.176
CN1CCN(C(=O)CCC(=O)NCc2ccc(F)cc2)CC1	13.2
COc1ccc(-c2nnn(CC(=O)NCc3cccs3)n2)cc1OC	17.4
COCC(=O)NCc1ccc2c(c1)OCO2	-7.78
C/C(=N\NC(=O)c1ccncc1)C12CC3CC(CC(C3)C1)C2	5.6
COc1ccc(OC)c(NC(=O)Cn2cc(C(=O)c3ccco3)c3ccccc32)c1	-15.4
CCS(=O)(=O)N1CCN(C(C)CCc2ccccc2)CC1 (stereo not shown)	-11.7
COc1ccc2cc(S(=O)(=O)c3ccccc3)c(=O)oc2c1	-2.81
COCCN(C(=O)c1ccc(N2CCCC2=O)cc1)c1c(N)n(CC(C)C)c(=O)[nH]c1=O	-0.184
O=C(Nc1ccc(Br)cn1)c1ccc2ccccc2c1	26.8
N#CC1=C(N)Oc2c(ccc3ccccc23)C1c1cccs1 (stereo not shown)	-3.81
O=C(CN1CCN(C(=O)c2cccc(-n3cnnn3)c2)CC1)Nc1ccccc1Cl	-90.3
CC(O)CNc1nc2ccccc2n1CC(=O)N1CCN(Cc2ccccc2)CC1 (stereo not shown)	-22.6
COc1cc2ccccc2cc1C(=O)OCc1nc2ccsc2c(=O)[nH]1	4.6
O=[N+]([O-])c1ccccc1COc1ccc(Cl)c2cccnc12	5.1
CSc1cccc(NC(=O)c2ccccc2N(C)S(C)(=O)=O)c1	-6.91

SMILES	hERG current change (%, negative = inhibition) at 10uM [%]
Cc1cccc(NC(=O)CNC(=O)COC(=O)c2ccco2)c1C	1.78
Cc1c(CCO)c(=O)[nH]n1S(=O)(=O)c1ccccc1	1.89
COc1ccccc1C(=O)NCC(=O)OCC(=O)c1cccc2ccccc12	4.06
CCOC(=O)c1sc2ncn(/N=C/c3ccc(O)c(OC)c3)c(=O)c2c1C	27.9
COCCn1nc2cc(C(=O)NCc3cc(C(F)(F)F)cc(C(F)(F)F)c3)ccc2c1OC	21.8
COC(=O)Nc1cc(C)n(-c2ccccc2)n1	8.38
CC(C)(CNc1ccc([N+](=O)[O-])cc1Cl)N1CCOCC1	-0.00342
CCOc1ccc(-c2nnc(SCC(=O)N(CC)CC)n2N)cc1	5.1
CCc1cccc(CC)c1NC(=S)N1CC2CC(C1)c1cccc(=O)n1C2 (stereo not shown)	5.97
NS(=O)(=O)c1ccc(CCNS(=O)(=O)c2ccc(Cl)cc2)cc1	-16.3
CC(C)CCNC(=O)c1c[nH]c2ccc(S(=O)(=O)N3CCOCC3)cc2c1=O	13.6
CCOc1ccc(S(=O)(=O)Nc2ccc(C(=O)NCC3CCCO3)cc2)cc1 (stereo not shown)	-37.4
O=C1CCCN1c1ccc(S(=O)(=O)Oc2cccc(Cl)c2)cc1[N+](=O)[O-]	-26.6
O=C(CCN1c2ccccc2Sc2ccccc21)Oc1ccccc1	18.3
COc1ccccc1CNc1ncnc2c1cnn2-c1ccccc1	-12.1
COc1ccc(S(=O)(=O)N2CCN(S(=O)(=O)c3ccc4c(c3)OCCO4)CC2)cc1	13.2
Cc1ccc(C(=O)COC(=O)c2cc(Cl)nc3ccccc23)cc1	-0.141
Cc1ccc(Cn2ncc3c(NCCCN(C)C)ncnc32)cc1	-3.16
CC(C)(C)NC(=O)NC(=O)COC(=O)CCC1CCCC1	10.3
CC(C)C(=O)NCCc1nc(-c2ccc(Cl)cc2)no1	5.54
O=C(c1ccccc1)N1N=C(C(F)(F)F)CC1(O)c1ccc(F)cc1 (stereo not shown)	-1.8
CCOc1ccc(NC(=O)C2CCCN(C(=O)NCc3ccccc3)C2)cc1 (stereo not shown)	5.02

SMILES	hERG current change (%, negative = inhibition) at 10uM [%]
Cc1onc(-c2ccccc2)c1C(=O)NCCCc1ccccc1	6.47
COc1ccc(S(=O)(=O)N(C)C)cc1NC(=O)Cc1c[nH]c2ccccc12	5.99
COc1ccc(S(=O)(=O)N(C)CC(=O)N2CCCCC2)cc1Cl	14.2
Cc1cc(C(=O)OCC(=O)Nc2ccc(S(N)(=O)=O)cc2)c2ccccc2n1	27.5
Cc1ccc(S(=O)(=O)NCC2CCC(C(=O)N3CCOCC3)CC2)cc1 (stereo not shown)	-4.69
O=C(c1ccc(Cl)cc1)C1CCCN(C2CCSCC2)C1 (stereo not shown)	-78.9
CCOc1cccc(NC(=O)c2cccc(F)c2)c1	16.8
Cc1ccccc1OCCC(=O)OCC(=O)NCCc1ccccc1	-0.876
Cc1ccccc1C(=O)NC(CC(C)C)C(=O)Nc1cccc(S(=O)(=O)N(C)C)c1 (stereo not shown)	0.428
O=C1C=C(OCc2ccccc2)CN1	7.28
O=c1c2ccccc2oc2ccc(NCCCn3ccnc3)cc12	9.83
COc1ccccc1CN(C)C(=O)c1cc(-c2cc(OC)c(OC)c(OC)c2)nc2ccccc12	12.9
CCSc1nnc(NC(=O)C2CC(=O)N(Cc3ccc(C)cc3)C2)s1 (stereo not shown)	-19.1
COc1ccc(/C=C2\C(=O)ON=C2c2cccc([N+](=O)[O-])c2)cc1	9.07
C=CCNC(=S)NNC(=O)c1ccccc1OCC	17.2
COc1ccccc1C(=O)NCc1nnc(SCC(=O)Nc2nccs2)n1C	6.5
CC(C)N=c1c([N+](=O)[O-])nn(C)n1O	-22.3
COc1ccc(-n2nc3c(c2NC(=O)CCl)CSC3)cc1	-1.63
Cc1ccccc1N(CC(=O)NCC1CCCO1)C(=O)C1(C)CC(=O)N=C2C=CC=CN21 (stereo not shown)	-1.4
Cn1c(-c2ccc3c(c2)OCO3)cnc1NCc1cccc(Cl)c1.O=C(O)C(=O)O	-74
NC(=O)Cn1c(=O)n(Cc2ccco2)c(=O)c2c3c(sc21)CCCCC3	5.2
CC(C)(C)NC(=O)COc1ccc(CNn2nnnc2N)cc1	17.4

SMILES	hERG current change (%, negative = inhibition) at 10uM [%]
Cc1nn(-c2ccccn2)c2c1C(=O)CC(C)(C)C2Br (stereo not shown)	-8.24
COc1cc(NC(=O)c2cc3ccccc3o2)ccc1NC(=O)c1ccco1	-9.81
CCOC(=O)C1(CC2CCCCO2)CCN(C2CCSCC2)CC1 (stereo not shown)	-37.8
Clc1ccc(-c2nnc(-c3ccc(Br)cc3)c(N3CCSCC3)n2)cc1	-11.9
O=C(/C=C/c1ccc2c(c1)OCCCO2)c1ccccc1O	1.94
CCOC(=O)C1=C(O)/C(=C/c2ccc(OCC(=O)O)c(OCC)c2)SC1=Nc1ccccc1	4.15
CC1CCc2c(sc(NC(=O)c3ccc(N4C(=O)CCC4=O)cc3)c2C(N)=O)C1 (stereo not shown)	-10.4
Cc1ccc(C(CC(=O)O)Nc2nc(N3CCOCC3)nc(N3CCOCC3)n2)cc1 (stereo not shown)	12.6
CCCCC(=O)OCC(=O)Nc1cccc(S(=O)(=O)NC2=NCCCCC2)c1	-9.56
O=C(COc1ccc(F)cc1Cl)Nc1ccc(S(=O)(=O)Nc2nccs2)cc1	1.69
CSc1ccccc1NC(=O)CN(C)C(=O)CNc1ccc(C(F)(F)F)cc1[N+](=O)[O-]	-4.68
O=C(COC(=O)c1cc(=O)[nH]c2ccccc12)NCc1cccc(Cl)c1	-15
COc1ccccc1N1CCN(C(=O)c2nn(C)c3c2CS(=O)(=O)c2ccccc2-3)CC1	2.07
COc1ccc(OC)c(NC(=O)CSc2nc(N3CCOCC3)nc(N3CCOCC3)n2)c1	-0.35
COc1cc(-c2nc3cnccn3c2Nc2c(C)cccc2C)ccc1O	12
CC(=O)Oc1cccc(N2C(=O)c3ccc(C(=O)Nc4cccnc4)cc3C2=O)c1	2.32
CCCSc1nsc(NC(=O)C(c2ccccc2)c2ccccc2)n1	19.3
Cc1cc(C(=O)CSc2n[nH]c(N)n2)c(C)n1-c1ccc2c(c1)OCO2	-19.2
[O-][n+]1cccc2c(Br)cc(Br)c(O)c21	-6.84
COc1cccc2c1OCC1COc3c(c(=O)n(C)c(=O)n3C)C21 (stereo not shown)	-4.01
O=C1CCCN1CCC1CCCCN1Cc1nc(-c2cnccn2)no1 (stereo not shown)	15.8
Cc1ccccc1NS(=O)(=O)c1cc(C(=O)Nc2cccnc2)ccc1C	15.7
